Read counts are not given, so values of variants with three or more changes are uncertain.
B1: LINE1-full (parent)
chain: UACGUAGGUGGUUUUCCCCUGAUAGUGCUAAGGGGGCCUGGAAGUUUGGACUGGGCAGAGCUCAACACAGCGUGGCAAAGUGGCUGUGGCUAGACUGCCUCUCUGGAUUCCUCGUCACUCAGCAGGGCAUCUCUGAGAGAAAUGCC

Variants of: B1
Test: self-cleavage, relative activity (ratio to wild type); higher = more cleavage; in vitro, sequencing; the parent is a self-cleaving ribozyme

Row | Variant | self-cleavage
1 | U26A U52C A79G U112C A136G | 1.84
2 | U26A U52C U100C U104A | 1.38
3 | U26A U62C G74A A129G | 0.03
4 | U26A U73C A77U U112C | 0.75
5 | U26A U73C U85A | 0.18
6 | U26A U85A U112C U115C U130C | 0
7 | U26A U85C U96A U109A | 0.15
8 | U26A U91C A117U A129G A138G A140G | 0
9 | U26A U104A U109C | 0.45
10 | U26A U108A U119C | 0.28
11 | U26A U108C A138G | 1.45
12 | U26A U112C U134C | 1.44
13 | U26A U115C A140U | 1.59
14 | U26A U119A A121G U132C | 1.76
15 | U26A U119A G126U | 0.99
16 | U26A U119C A121U A141G | 1.3
17 | U26A U132C A140G | 1.28
18 | U26C A30G U102C A140G U143A | 1.31
19 | U26C A31G A65G | 0.17
20 | U26C A31G G72A | 1.8
21 | U26C A31G U102A | 0.97
22 | U26C A31U U39C U46C A94G U119A | 0
23 | U26C A42G A64G A141G | 0.35
24 | U26C A42G A69G | 0.3

Row | Variant | self-cleavage
25 | U26C A42G A129G | 0.57
26 | U26C A42G A138G | 0.26
27 | U26C A42G A140G | 1.41
28 | U26C A42G C131A | 2.03
29 | U26C A43C U132C | 1.78
30 | U26C A43G A69G G126A | 0.75
31 | U26C A43G A138C A140C | 1.23
32 | U26C A50G A59G | 0
33 | U26C A50G U81A U115C | 2.04
34 | U26C A57G A59U A92U A142C | 1.25
35 | U26C A57G A78G U102A | 1.18
36 | U26C A57G C71U A124G | 0.49
37 | U26C A57G U115C | 0
38 | U26C A57U U73A | 0.17
39 | U26C A57U U73A U100C | 0.29
40 | U26C A57U U100C A121U | 0
41 | U26C A59U U108C | 0.92
42 | U26C A64G A129G | 0
43 | U26C A64G A129U | 0.36
44 | U26C A64G G105U G127U | 0.68
45 | U26C A64U A65G A77U U87A G137A | 0.1
46 | U26C A65G A92U | 0.2
47 | U26C A65G U130C | 0.29
48 | U26C A67U A107G A142G | 0.15

Row | Variant | self-cleavage
49 | U26C A69G A117G | 0
50 | U26C A69G U109C | 0
51 | U26C A69U A124G U132C | 0
52 | U26C A69U U143A | 0
53 | U26C A77U C90G | 0.05
54 | U26C A77U U85A | 0.04
55 | U26C A77U U115C | 1.63
56 | U26C A78G A107G A140G | 2.16
57 | U26C A78G A117G A140G | 1.62
58 | U26C A79G G144A | 1.02
59 | U26C A79U A140G | 1.47
60 | U26C A94G A129G | 1.53
61 | U26C A94U A138G | 0
62 | U26C A107G A136G | 1.74
63 | U26C A117G U143C | 1.6
64 | U26C A121G U143C | 0
65 | U26C A124G U143C | 1.33
66 | U26C A129U A141G | 0.64
67 | U26C C28U A77G G83A U112A A121C A138U | 0.65
68 | U26C C37G U119C G122A A124G | 0.92
69 | U26C C37U A67G A77U U115G A141G | 0.69
70 | U26C C38U A50U A121G | 1.88
71 | U26C C61U A141G | 0.11
72 | U26C C66U U81G | 0.05

Row | Variant | self-cleavage
73 | U26C C76U U96C U132C | 0.16
74 | U26C C84U A124G | 0.1
75 | U26C C90A A142G | 0.02
76 | U26C C95U U134C | 0.33
77 | U26C C99U U100C | 0.82
78 | U26C G32A A64C G105A | 0.2
79 | U26C G32U U100C U112C C118U C133U G137A | 2
80 | U26C G33A A59G U73A G83C A141G | 0.06
81 | U26C G33U U81A | 1.48
82 | U26C G34U A65G U81C | 0
83 | U26C G35C U46C U104C A117U | 2.16
84 | U26C G35U U104A | 0.79
85 | U26C G40A A43G A77G | 1.69
86 | U26C G41A C61G U85C U119A | 0
87 | U26C G49A A78G | 0.48
88 | U26C G53A G105A | 1.34
89 | U26C G70A U102C A136U | 0.18
90 | U26C G70A U119A A141G | 0.18
91 | U26C G72A A141G | 1.59
92 | U26C G82U U85C U130C | 0.27
93 | U26C G86A A92U | 0.03
94 | U26C G125U A138G | 1.05
95 | U26C U29A A30G C68U U108C | 0.7
96 | U26C U29A U112A G127A | 0.67

Row | Variant | self-cleavage
97 | U26C U29C A57C A64U C95U U134A | 0.1
98 | U26C U29C A65U A78G | 0.23
99 | U26C U39A A78G U85A U104A U143C | 0.06
100 | U26C U39A G49A U73G A124U | 0.66
101 | U26C U39A U62C | 0.03
102 | U26C U39A U102A | 1.26
103 | U26C U39C A43G C145U | 1.23
104 | U26C U39C A64U C133U G139A | 0.62
105 | U26C U39C U47C A69U | 0
106 | U26C U39C U100C C123U A124G | 1.45
107 | U26C U45A A78C | 1.74
108 | U26C U45C G75A | 1.65
109 | U26C U45C U47C U81A | 1.07
110 | U26C U45C U81C | 0
111 | U26C U46A U62C C113U | 0.08
112 | U26C U46A U130A | 1.24
113 | U26C U46C C101A | 1.07
114 | U26C U46C U52A | 1.72
115 | U26C U46G C116U | 1.3
116 | U26C U47A A69U | 0.03
117 | U26C U47A A78C U85A | 0.09
118 | U26C U47A G58A G75A | 0.03
119 | U26C U47A U73C | 1.95
120 | U26C U47A U109A | 1.84

Row | Variant | self-cleavage
121 | U26C U47C A124U A142G | 1.71
122 | U26C U52A A79G C116U U130C A138G | 0.51
123 | U26C U62C C118A U130C | 0
124 | U26C U62C U87A U102A A117U | 0
125 | U26C U62G U81A | 0.22
126 | U26C U73A A92U A129G | 0.68
127 | U26C U73A U108C | 1.61
128 | U26C U85A G93A G126A A141U | 0.01
129 | U26C U85A U132C | 0.13
130 | U26C U85C A142G | 0.54
131 | U26C U85C U87A | 0.15
132 | U26C U87A A124G | 0.08
133 | U26C U87C U115C | 1.15
134 | U26C U91C A124U | 1.03
135 | U26C U96A U102A | 0.08
136 | U26C U96C C118U U134A | 0
137 | U26C U100C U115C C131U | 2.58
138 | U26C U104A A141G | 1.25
139 | U26C U104A U130C | 1.46
140 | U26C U109C A117G | 0.57
141 | U26C U112C A124G A129U | 2.55
142 | U26C U115A G137A | 2.45
143 | U26C U119A A140G | 1.17
144 | U26C U119C C133A U134G | 1.08

Row | Variant | self-cleavage
145 | U26C U130C A136U | 0.95
146 | U26G A31U C76U U96C | 0.29
147 | U26G A42U A129C | 1.51
148 | U26G A42U C66U | 0.13
149 | U26G A50G U102A | 0.63
150 | U26G A57G U109A A129G | 1.69
151 | U26G A67U A107U U119C C120A | 0.16
152 | U26G A77G A124G A141G | 0.92
153 | U26G A79G A142G | 1.4
154 | U26G A92G C113U U115C | 0.19
155 | U26G C37G A67G | 0
156 | U26G C84U G88A | 0
157 | U26G G54A U62C | 0.15
158 | U26G U39C G125A | 1
159 | U26G U46C A57U A136G | 0.3
160 | U26G U73A U87C | 0.17
161 | U26G U73C U87C | 0
162 | U26G U85A A129G | 0.12
163 | U26G U85C A138G | 0.27
164 | U26G U102C A140G | 0
165 | G27A A43G G74A | 1.53
166 | G27A A50G U119A | 0.73
167 | G27A A59G A107G C111U A121U | 0.07

Reference: the RNAGym collection of RNA variant scans (doi:10.7554/elife.90254)
